Test results taken from paper PMC4336329 (PLoS ONE, 2015).
The whole screen tested about 310,000 compounds, of which about 2,200 (0.71%) showed an effect of 50% or more. Effects have a minus sign here. This is one part of the list.

Each molecule was assayed against human ether-à-go-go-related gene (hERG) potassium channel (human, UniProt Q12809) (assay: primary screen, population patch clamp on CHO cells stably expressing hERG).
Chain of human ether-à-go-go-related gene (hERG) potassium channel (Q12809 whole entry, looked up): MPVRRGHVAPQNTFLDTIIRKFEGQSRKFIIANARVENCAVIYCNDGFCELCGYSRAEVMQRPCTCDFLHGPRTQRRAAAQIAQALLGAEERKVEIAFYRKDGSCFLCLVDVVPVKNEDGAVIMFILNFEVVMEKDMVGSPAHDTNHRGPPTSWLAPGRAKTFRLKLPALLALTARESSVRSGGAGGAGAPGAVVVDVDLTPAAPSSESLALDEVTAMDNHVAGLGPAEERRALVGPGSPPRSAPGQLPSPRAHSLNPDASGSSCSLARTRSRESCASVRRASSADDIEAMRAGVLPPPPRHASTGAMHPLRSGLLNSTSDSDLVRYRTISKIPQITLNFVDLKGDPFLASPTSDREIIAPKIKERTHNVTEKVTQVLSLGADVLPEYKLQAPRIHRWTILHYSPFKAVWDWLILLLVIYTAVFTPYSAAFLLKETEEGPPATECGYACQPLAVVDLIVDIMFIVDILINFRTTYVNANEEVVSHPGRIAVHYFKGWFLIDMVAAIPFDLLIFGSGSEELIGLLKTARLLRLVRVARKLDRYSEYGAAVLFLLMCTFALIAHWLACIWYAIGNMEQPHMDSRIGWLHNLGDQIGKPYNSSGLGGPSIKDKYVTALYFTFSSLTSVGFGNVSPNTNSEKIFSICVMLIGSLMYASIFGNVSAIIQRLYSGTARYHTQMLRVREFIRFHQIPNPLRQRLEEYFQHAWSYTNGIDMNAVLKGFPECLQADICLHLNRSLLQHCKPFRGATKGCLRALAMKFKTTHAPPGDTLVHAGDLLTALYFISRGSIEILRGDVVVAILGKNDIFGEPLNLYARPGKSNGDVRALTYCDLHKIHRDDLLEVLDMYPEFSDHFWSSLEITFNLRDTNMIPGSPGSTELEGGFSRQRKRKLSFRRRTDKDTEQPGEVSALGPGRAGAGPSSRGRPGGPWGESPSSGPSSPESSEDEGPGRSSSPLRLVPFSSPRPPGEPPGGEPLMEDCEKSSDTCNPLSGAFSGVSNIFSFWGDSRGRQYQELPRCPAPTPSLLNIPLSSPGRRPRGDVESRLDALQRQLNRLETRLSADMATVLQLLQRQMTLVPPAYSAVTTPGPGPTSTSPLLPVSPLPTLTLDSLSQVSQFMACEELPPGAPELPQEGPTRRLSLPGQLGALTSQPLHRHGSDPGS

SMILES	hERG current change (%, negative = inhibition) at 1uM
CCCC(=O)Nc1nc2c(c(=O)[nH]1)CCCC2	14.2%
COc1ccnc(Oc2ccc(F)cc2)c1C(=O)N/C=N/OCc1ccc(F)cc1Cl	12.6%
O=[N+]([O-])c1ccc(N2CCN(C(=S)Nc3ccccc3)CC2)cc1	5.2%
CCc1ccc(NC(=O)C(C)Nc2ccc(S(=O)(=O)NC(C)=O)cc2)cc1 (stereo not drawn)	6.91%
N#CC(C#N)=C(N)Nc1cccc(Cl)c1	11.3%
N#C/C(=C(/O)CCl)c1nc2ccccc2[nH]1	1.42%
Cc1ccc(NC(=O)c2cc(=O)c3ccccc3o2)cc1S(=O)(=O)N1CCOCC1	9.18%
O=C(OCC(=O)N1c2ccccc2Sc2ccccc21)c1ccc[n+]([O-])c1	4.24%
COc1ccc(NS(=O)(=O)c2ccc(NC(=O)c3ccc(N(C)S(C)(=O)=O)cc3)cc2)c(OC)c1	14%
CS(=O)(=O)N(CC(=O)NCCSCc1c(F)cccc1Cl)c1ccc2c(c1)OCO2	7.52%
O=S(=O)(NCC(c1cccnc1)N1CCN(c2ccc(F)cc2)CC1)c1cc(F)ccc1F (stereo not drawn)	-11.8%
c1c2c(cc3sc(N4CCCCC4)nc13)OCO2	15.9%
O=[N+]([O-])c1ccc(N2CCN(S(=O)(=O)c3ccccc3)CC2)cc1	-13.5%
Cc1cc(N=Cc2c(O)n(-c3cccc(C(F)(F)F)c3)c(=O)c3ccccc23)no1	8.56%
Cc1cc(=O)n2nc(N3CCCC(C(=O)NC4CCCCC4C)C3)sc2n1 (stereo not drawn)	17.9%
O=C(Oc1ccc2c(c1)O/C(=C\c1ccncc1)C2=O)c1ccccc1	6.52%
Cc1nn(CCCC(=O)NCCc2ccc(Cl)cc2)c(=O)c2nn(-c3ccccc3)c(C)c12	15.9%
C=CCC(=O)N1CCCC(CO)(Cc2ccc(F)cc2F)C1 (stereo not drawn)	7.29%
CS/C(=N\NC(N)=O)c1ccccc1	-3.95%
Cc1ccc2c(=O)cc(C(F)F)oc2c1	-1.85%
O=C1NC(CCc2ccccc2)C(=O)N1CCOc1ccccc1 (stereo not drawn)	8.3%
Cl.Fc1cccc(Cl)c1CNCCCSc1ncccn1	11%

SMILES	hERG current change (%, negative = inhibition) at 1uM
Oc1ccc(Cl)cc1CNc1cccc2cccnc12	20.8%
COc1ccccc1CCC(=O)OCC(=O)Nc1ccc2[nH]c(=O)[nH]c2c1	10.5%
CC(=O)OC1N=C(c2ccccc2)c2cc(C)ccc2NC1=O (stereo not drawn)	-2.45%
O=C(COc1ccccc1F)Nc1ccc2c(c1)OCCO2	16.1%
CC(C)[C@H](N)c1nnc(SCC(=O)c2ccc(Cl)cc2)o1.Cl	7.94%
O=C(O)Cn1cc(/C=C2\C(=O)NC(=O)N(c3ccc(Br)cc3)C2=O)c2ccccc21	15.5%
O=C(c1ccccc1)c1ccc(C(=O)N2CCN(c3ccc(F)cc3)CC2)o1	-49.4%
COc1ccc(-c2cc(C(=O)Nc3ccccc3O)c3ccccc3n2)cc1OC	10.3%
O=C(NCC1CCCO1)c1ccc(CS(=O)(=O)c2c(Cl)cccc2Cl)o1 (stereo not drawn)	4.53%
C/C=C(/C)C(=O)O[C@@H]1[C@H](OC(=O)C=C(C)C)c2c(ccc3ccc(=O)oc23)OC1(C)C	11.2%
COc1ccccc1Nc1ncnc2sccc12	14.2%
CC(C)C(=O)NCCc1nc2ccccc2n1CCCOc1ccc(Cl)cc1	-1.93%
NC(=O)c1ncn([C@@H]2O[C@H](CO)[C@@H](O)[C@H]2O)n1	25.8%
COc1ccc(CCCNC(=O)C2CCC(=O)N(CCCN3CCCC3=O)C2)cc1 (stereo not drawn)	14.6%
O=C(CN(c1cccc(C(F)(F)F)c1)S(=O)(=O)c1ccc(Cl)c([N+](=O)[O-])c1)NCc1ccccc1Cl	-1.08%
COc1ccc(NC(=O)CCN2C(=O)[C@@H]3[C@H](C2=O)[C@H]2C=C[C@@H]3C2)cc1	11.1%
CC(C)(C)NC(=O)C1CC(=O)OC12CCOC(C)(C)C2 (stereo not drawn)	17.1%
O=C(NCC1CCCO1)C1CC(c2ccc(Cl)c(Cl)c2)=NO1 (stereo not drawn)	4.3%
Cc1cc(C(=O)OCC(=O)N2CCCC2)c2ccccc2n1	4.28%
O=C(CSc1n[nH]c(-c2ccncc2)n1)c1ccccc1	12.9%
COCCCn1c(=O)c2ccccc2n(CC(=O)NC2CCCCC2)c1=O	14.1%
CCN1CCN(c2ccc(S(=O)(=O)N3CCOCC3)cc2NC(=O)CC(C)C)CC1	5.72%

SMILES	hERG current change (%, negative = inhibition) at 1uM
O=C(N/N=C(\CC(=O)c1cccs1)C(F)(F)F)c1ccncc1	0.112%
COc1cccc(CN2CCNC(=O)C2CC(=O)NC2CCCC2)c1OC (stereo not drawn)	6.62%
CC1CCN(C(=O)CSc2nc(C3CC3)nc3ccccc23)CC1	4.72%
CCOC(=O)C1CCCN(c2c(NCCCN(CC)c3ccccc3)c(=O)c2=O)C1 (stereo not drawn)	-9.35%
O=C(O)CCc1ccc(-c2ccccc2)n1Cc1ccco1	1.58%
CC(C)CN(CC(C)C)c1ccc(/C=N/n2cnnc2)cc1[N+](=O)[O-]	4.48%
CCOc1ccc(CCNC(=O)COC(=O)CCC(=O)c2cccs2)cc1OCC	-2.59%
O=C1Cc2ccccc2Sc2ccc(Cl)cc21	14.5%
O=C1N[C@@H](Cc2ccccc2)C(=O)N2[C@H]1C[C@]1(Br)c3ccccc3N(S(=O)(=O)c3ccc(F)cc3)[C@H]21	14.2%
COCC1=C(C(=O)OC)C(c2ccco2)n2ncnc2N1 (stereo not drawn)	18.2%
CSCCC(=O)NC1CC(C)(C)Cc2c1cnn2-c1ccccc1C (stereo not drawn)	10.8%
O=C(Nc1ccccc1-c1ccccc1)C(c1ccccc1)c1ccccc1	18.6%
Cl.O=C(CS(=O)CC(=O)Nc1cnc2ccccc2c1)Nc1ccc(Cl)cc1 (stereo not drawn)	2.52%
CCOc1ccc2nc(NCCO)[nH]c2c1	10.9%
O=C(c1ccc(Br)o1)N1CCN(c2ccccc2F)CC1	5.97%
COc1ccc(/C=N/n2cnc3scc(-c4cccs4)c3c2=O)cc1OC	5.91%
Cc1cc(C)nc(S/C=C/C(=O)c2ccccc2F)n1	5.68%
COc1ccc(CN(CC2CCC(C(=O)O)CC2)C(=S)Nc2cc(C)cc(C)c2)cc1 (stereo not drawn)	16.9%
COc1ccccc1C(CC(=O)Nc1ccc(C)c(C)c1)c1ccc(OC(C)C)cc1 (stereo not drawn)	8.24%
CN(C)S(=O)(=O)c1ccc(N2CCCC2)c(C(=O)NNC(=O)COc2ccccc2Cl)c1	-6.2%
CCCN1Cc2cccc(C(=O)NCc3ccccc3)c2C1=O	-4.44%
COc1ccc(NC(=S)N2C3CCC2CC(NC(=O)NC24CC5CC(CC(C5)C2)C4)C3)c(OC)c1 (stereo not drawn)	17.3%

SMILES	hERG current change (%, negative = inhibition) at 1uM
C=C(C)CN(CC)Cc1c(C(=O)N(C)CCCC)nc2ccccn12	-9.75%
c1ccc2c(c1)CCc1ccccc1C2=C1CCNCC1	10.5%
COc1cccc(CNc2nc3ccc(C)cc3n3cnnc23)c1	10.5%
N#CCCN(C(=O)COC(=O)c1ccc2c(c1)OCO2)c1ccccc1	0.0284%
Cc1cccc(C)c1NC(=O)CN(C)C(=O)CN1C(=O)NC(C)(C)C1=O	12.1%
Cc1cccc(C)c1NC(=O)N1CC=CCC1	12.7%
COCc1c(C(=O)N/N=C\c2cccnc2)nnn1-c1nonc1N	9.27%
CN1CC(=O)N/C1=N\C(=O)Nc1ccc2c(c1)N(C)C(=O)CS2	-1.82%
COc1cccc(CNCCc2c[nH]c3ccccc23)c1OCc1ccccc1F.Cl	-11.1%
O=C(CCCNS(=O)(=O)c1cccs1)N1CCc2ccccc2C1	1.14%
Cc1ccc(C)c(-n2c(SCC(=O)Nc3nonc3C)nnc2-c2ccoc2C)c1	9.3%
Cc1ccc2nc(N(CCCN(C)C)C(=O)CCc3ccccc3)sc2c1.Cl	-2.33%
Cc1nccn1-c1ncnc2sc3c(c12)CCCC3	4.86%
COC(=O)Cc1csc(Nc2ccccc2)n1	8.24%
COc1ccc(OC)c(C2C(C#N)=C(N)Oc3c2c(C)nn3-c2cccc(Cl)c2)c1 (stereo not drawn)	7.28%
COc1ccc(-c2[nH]ncc2-c2cscn2)c(O)c1	-0.759%
COc1ccc(NC(=S)Nc2cnc3ccccc3c2)c(OC)c1	2.49%
CCCc1[nH]n(-c2ccc(F)cc2)c(=O)c1C=Nc1ccc(C)cc1	5.18%
CC(OC(=O)C1CCN(c2ccc(C(F)(F)F)cn2)CC1)C(=O)Nc1ccc(S(N)(=O)=O)cc1 (stereo not drawn)	6.71%
Cc1cc(C(=O)Nc2ccc(N3CCOCC3)c(Cl)c2)c(C)o1	8.45%
C=C(C)C(=O)Nc1cccc(C2=NOC3(C2)C[C@@H](C(N)=O)N(C(=O)/C=C/C=C/C)C3)c1 (stereo partly drawn)	9.54%
